Variants at the background level are over-represented here.
B1: TPR 5TU (parent)
chain: GGAUCUUCUCGAUCUAACAAAAAAGACAAAUCUGCCACAAAGCUUGAGAGCAUCUUCGGAUGCAGAGGCGGCAGCCUUCGGUGGCGCGAUAGCGCCAACGUUCUCAACUAUGACACGCAAAACGCGUGCUCCGUUGAAUGGAGUUUAUCAUG

Variants of: B1
Experiment: polymerase ribozyme fitness, log enrichment relative to wild type (log ratio); higher = more active; in vitro selection for triplet polymerase activity
How it was run: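 To select mutant libraries of each subunit of a heterodimeric triplet polymerase ribozyme, built by PCR and transcribed, each was annealed with a biotinylated primer, partner subunit and triplets, then incubated frozen at −7 °C. Extended constructs were gel-excised, captured on streptavidin beads and amplified by RT-PCR, in one round carried out in triplicate. Illumina sequencing of input and output libraries kept genotypes with ≥10 input reads and ≥1 read per output. Fitness is the base-2 logarithm of genotype enrichment relative to wild-type enrichment, from inverse-variance-weighted replicate averages.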

Point of comparison: GGAUCUUCUCGAUCUAACAAAAAAGACAAAUCUGCCAUAAAGCUUGAGAGCAUCUUCGGCUGCAGAGGCGGCAGCCUUCGGUGGUGCGAUAGCGCCAACGUUCUCAACUAUGACACGUAAAACGCGUGCUCCGUUAAAUGGAGUUUAUCAUG, “polymerase ribozyme fitness (log ratio)” value -0.726. Against it:
- GGAUCUUCUCGAUCUAACAAAAAAGACAAAUCUGCCAUAAAGCUUGCGAGCAUCUUCGGAUGCAGAGGCGGCAGCCUUCGGAGGCGCGAUAGUGCCAGCGUUCUCAACUAUGACACGCAAAACGCGUGCUCCGUUGAAUGGUGUUUAUCAUG — lower, ≤ -4.2
- GGAUCUUCUCGAUCUAACAAAAAAGACAAAUCUGCCAUAAAGCUUGAGAGUAUCUUCGGAUGCAGAGGCGGCAGCAUUAGGUGGCGCGAUAGCGCCUACAUUGUCGACUAUGACACGCAGAACGCGUGCUCCGUUGAAUGGAGUUUAUCAUG — lower, ≤ -4.2
- GGAUCUUCUCGAUCUAACAAAAAAGACAAAUCUGCCAUAAAGCUUGAGCGCAUCUUCGGAUGCAGGGGCGGCAGCCUUCGGUGGCGCGAUAGCGCCAACGUUCUCAACUAUGACACGCAAAACGCGUGCUCCGUUGAUUGGAGCUUAUCAUG — lower, ≤ -4.2
- GGAUCUUCUCGAUCUAACAAAAAAGACAAAUCUGCCAUAAAGCUUGAGAGCUUCUUCGGAUACAGAGGCGGCAGCCUUCGGUGUGGCGAUAGCGCCAACGUUCUCAACUAUGACACGCAAAACGCGUGCUCCGUUGAAUGGAGUUUAUCAUG — lower, ≤ -4.2
- GGAUCUUCUCGAUCUAACAAAAAAGACAAAUCUGCCAUAAAGCUUGAGAGUAUCUACGGAUGCAGAGGCGGCAGCCUUCGGUGGCGCGAUAGCUCCAACGUUCUAAACUAUGACACGCAAUACGCGUGCUCCGUUGAAUGGAGUUUAUCAUG — lower, -4.15
- GGAUCUUCUCGAUCUAACAAAAAAGACAAAUCUGCCAUAAAGCUUGGGAGCAACUUCGGAUGCAGAGGCGGCAGCCUUCGGUGGCGCGAUAGCGCCAACGUUCUCAACUAUGACACGCAAAACGCGUGCUCCGUUGAAUGCAGUUUAUCAUG — lower, -2.86
- GGAUCUUCUCGAUCUAACAAAAAAGACAAAUCUGCCAUAAAGCUUGAGGGCAUCGUCGGCUGCAGAGGCGGCAGCCUUCGGUGGCGCGAUACCGCCAACGUUCUCAACUAUGACACGCAAAACGCGUGCUCCGUUGAAUGGAGGUUAUCAUG — lower, ≤ -4.2
- GGAUCUUCUCGAUCUAACAAAAAAGACAAAUCUGCCAUAAAGCUUGAGUGCAUCUUCGGAUGCAGAGGCGGCAGCCGUCGGUGGCGCGAUAGCGCCAACGUUGUCAACUAUGACACGCAAAACGCGUGCUCCGUUGAAUGGAGUUUAUCAUG — lower, ≤ -4.2
- GGAUCUUCUCGAUCUAACAAAAAAGACAAAUCUGCCAUAAAGCUUGAGAGCAUCUUCGGAUGCAGAGGCGGCGGCCUUCGGUGGCGCGAUAGCGCCAACGUUAUCAACUAUGACACGCAAAACGCGUGCUCCGUUGAAUGGAGUUUAUCAUG — lower, -3.99
- GGAUCUUCUCGAUCUAACAAAAAAGACAAAUCUGCCAUAAAGCUUGAGAGCAUCUUCGGUUGCAGAGGCGGCAGCCUUCGGUGGCGUGAUAGCGGCAACGUUCUCAACUAUGACACGCAAAACGCGUGCUCCGUAGAAUGGAGUUUAUCAUG — lower, ≤ -4.2
- GGAUCUUCUCGAUCUAACAAAAAAGACAAAUCUGCCAUAAAGCUUGCGAGCAACUUCGGAUGCAGAGGCGGCAGCCUUCGGUGGCGCGAUAGCGCCAACGUUCUCAACUAUGACACGCAAAACGCGUGCUCCGUUGAAUGGCGUUUAUCAUG — lower, -3.39
- GGAUCUUCUCGAUCUAACAAAAAAGACAAAUCUGCCAUAAAGCUUGAGAGCAUCUUCGGAUGCAGAGGCGGCAGCCUUCGGUGGCGCGAUGGAGCCAACGUUCUCAACUAUGACACGUAAAACGCGUGCUCCGUUGAAUGGAGGUUAUCAUG — lower, ≤ -4.2
- GGAUCUUCUCGAUCUAACAAAAAAGACAAAUCUGCCAUAAAGCUUGAGCGCAUCAUCGGAUGGAGAGGCGGCAGCCUUCGGUGGCGUGAUAGCGUCAACGUUCUCAACGAUGACACGCAAAACGCGUGCUCCGUUGAAUGGCGUUUAUCAUG — lower, ≤ -4.2
- GGAUCUUCUCGAUCUAACAAAAAAGACAAAUCUGCCAUAAAGCUUGAGAGCGUCUUCGGAUGCAGAGGCGGCAGCCUUCGGUGGCGCGAUAGCGCCAACGUUCUCAACUCUGACACGCAAAACGCGUGCUCCGUUGAAUGGAGUUUAUCAUG — lower, ≤ -4.2
- GGAUCUUCUCGAUCUAACAAAAAAGACAAAUCUGCCAUAAAGCUUGUGAGCAUAUUCGGAUGCAGAGGCGGCGGCCUACGGUGGCGCGAUUGCGCCAACGUUCUCAACUAUGAAUUGCAAAACGCGUGCUCCGUUCAAUGGAGUUGAUCAUG — lower, ≤ -4.2
- GGAUCUUCUCGAUCUAACAAAAAAGACAAAUCUGCCAUAAAGCUUGAGUGCAUCUUCGGAUGCAGAGGCGGCAGCCUUCGGUGGCGCGAUAGCGCCAACGUUCUCAACUAUGACACGCAAAACGCGUUCUCCGUUGAAUGGAGCUUAUCAUG — lower, ≤ -4.2
- GGAUCUUCUCGAUCUAACAAAAAAGACAAAUCUGCCAUAAAGCUUGAGAGCAUAUUCGGAUGCAGAGGCGGCGGCCUUCGGUGGCGCGAUAGAGCGAACGUUCUCAACUAUGACAUGCAAAACGCGUGCUCCGUUCAAUGGAGUUUAUCAUG — lower, ≤ -4.2
- GGAUCUUCUCGAUCUAACAAAAAAGACAAAUCUGCCAUAAAGCUUGAGAGCAUCUUCGGAUGCAGAGGCGGCAGCCUUCGGUGGCGCGUUAGCGCCAACGUUCUCUACUAUGACACGCAAAACGCGUGCUCUGUUGAAUGGAGUUUAUCAGG — lower, ≤ -4.2
- GGAUCUUCUCGAUCUAACAAAAAAGACAAAUCUGCCAUAAAGCUUGCGAGCAUCGUCGGAUGCAGAGGCGGCAGUCUUCGGUGGCUCGGUAGCGCCAACGUUCUCAAUUAUGACACGUAAAACGCGUGCUCCGUUGAAUGGAGUUUAUCAUG — lower, ≤ -4.2
- GGAUCUUCUCGAUCUAACAAAAAAGACAAAUCUGCCAUAAAGUUUGAGAGCAUUUUCGGAUGCAGAUGCGGCAGCCUUCUGUGGGGUGAUAGCGCCAACGUUCUCAACUAUGACACGCAAAACACGUGCUCCGUUGAAUGGAGUUUAUCAUG — lower, ≤ -4.2
- GGAUCUUCUCGAUCUAACAAAAAAGACAAAUCUGCCAUAAAGCUUGAGAGCCUCGUCGGAUGCAGAGGCGGCAGCCUUCGGUGGCGCGAUAGUGCCAACGUUCUCAACUAUGACACGCAAAACGCGUGCUCCGGUAAGUGGAGUUUAUCAUG — lower, ≤ -4.2
- GGAUCUUCUCGAUCUAACAAAAAAGACAAAUCUGCCAUAAAGCUUGAGAGCAUCUUCGGCUGCAGAGGCGGCAGCCGUCGGUGGCGUGAUAGCACCAACGAUCUAAACUAUGACACGCAAAACGCGUGCUCCGUUGAAUGGAGUUUAUCAUG — lower, ≤ -4.2
- GGAUCUUCUCGAUCUAACAAAAAAGACAAAUCUGCCAUAAAGCUUGAGAGCGUCUUCGGAUGCAGAGGCGGCAGCCUUCGGUGGCGCGAUAACGCCAACGUUCUCAACUAUGACACGCAAAACUCGUGCUCCGUUGAAUGGAGUUUAUCAUG — lower, -3.84
- GGAUCUUCUCGAUCUAACAAAAAAGACAAAUCUGCCAUAAAGCUUGAGAGCAUCUUCGGGUGCAGAGGCGGCAGUCUUCGGUGGCGAGAUAGCGCGAACGUUCUCAACUAUGACACGCAAAACGCGUGCUCCGUUGAAUGGAGUUUAUCAUG — lower, ≤ -4.2
- GGAUCUUCUCGAUCUAACAAAAAAGACAAAUCUGCCAUAAAGCUUGAGAGCGUCUUCGGAUGCAGAGGCGGCAGCCUUCGGUGGCGCGAUAGCGCCAACGUUGUCAACUAUGACACGUAAAACGCGUGCUCCGUUGAACGGAGUUUUUCAUG — lower, ≤ -4.2
- GGAUCUUCUCGAUCUAACAAAAAAGACAAAUCUGCCAUAAUGCUUGAGAGCAUCUUCGGAUGCAGAGGCGGCAGCCUUCGGUGGCGCGAUAGCACCAACGUUCUCAACUAUGACACGCAAAACGCGUGCUCCGUUGAAUGGAGUUUAUCAUG — lower, -1.15
- GGAUCUUCUCGAUCUAACAAAAAAGACAAAUCUGCCAUAAGGCUUGAGAGCAUCUUCGGAUGCAGAGGCGGCAGCCUUCGGUGGCGCGAUAGUGCCAACGUGCUCAACUAUGACACCCAAAACCCGUGCUCCGUUGAAUGGAGUGAAUCAUG — lower, ≤ -4.2
- GGAUCUUCUCGAUCUAACAAAAAAGACAAAUCUGCCAUAAAGCUUGUGAGCAUCUUCGGAUGCAGAGGCGGCAGCCUUCGGUGGCGCGAUAGCGCCAACGUUCUCAACUAUGACACGCAAUACGCGUGCUCCGUAGAAUGGUGUUUAUCAUG — lower, -2.42
- GGAUCUUCUCGAUCUAACAAAAAAGACAAAUCUGCCAUAAGGCUUGAGAGCAUCUUCGGAUGCAGAGGCCGCAGCCUUCGGUGGCACAAUAGCGCCAACGUUUUCAACUAUGACACGCAAAACGCGCGCUCCCUUGAAUGGAGUUUAUCAUG — lower, ≤ -4.2
- GGAUCUUCUCGAUCUAACAAAAAAGACAAAUCUGCCAUAAAGCUUGAGAGCAUCUUCGGAUGCGGAGGCGGCAGCCUUCGGUGGCGCGAUAGUGCCAACGUUCUCAACUAUGACACGCAAAACGCGGGCUCCGUUGAAUGGAGUUUAUCAUG — lower, ≤ -4.2
- GGAUCUUCUCGAUCUAACAAAAAAGACAAAUCUGCCAUAAAGCUUGAGAGAAUCUUCGGAUGCAGACGCGGCAGCCUUCGGUGGCGCGAUAGCGCGAACGUUCUCAACUAUGACACGCAAAACGCGUGCUCCGUUGAAUGGAGUUUAUCUUG — lower, ≤ -4.2
- GGAUCUUCUCGAUCUAACAAAAAAGACAAAUCUGCCAUAAAGCUUGAGAGCGUCUUCGGAUGCAGAGGCUGCAGCCUUCGGUGGUGCGAUAGCGCCAACGUUCUCAACUAUGACACUCAAAACGCGUGCUCCGUUGAAUGGAGUUUAUCAUG — lower, -3.27
- GGAUCUUCUCGAUCUAACAAAAAAGACAAAUCUGCCAUAAAGUUUGAGAGCAUCUUCGGAUGCAGAGGCGGCAGCCUUCGGUGGCGCGAUAUCGUCAACGUUCUCAACUAUGACACGCAAAACGCGUGCUCCGUUGAAUGGAGUUUAUCAUG — lower, ≤ -4.2
- GGAUCUUCUCGAUCUAACAAAAAAGACAAAUCUGCCAUAAAGCUUGAGAGCAUCUUCGGAUGCAGAGGCGGCAGCCUUCGGUGGCGCGAUAGCGCCAACGUUCUCACCUAUGACACGCAAAACGCGUGCUCCGUUGAAUGGAGUUUAUCAUG — lower, -3.45
- GGAUCUUCUCGAUCUAACAAAAAAGACAAAUCUGCCAUAAAGCUUGAGAGCAUCUUCGGAUGCAGAGGCGGCAGCCUUCGGUGGCGCGAUAGCGCCAACGUUCUCUACUAUGACACGCAAAACGCGUGCUCCGUUGAAUGGAGUCUAUCAUG — lower, -1.24
- GGAUCUUCUCGAUCUAACAAAAAAGACAAAUCUGCCAUAAAGCUUGAGAGCCUCUUCGGAUGCAGACGCGGCAGCCGUCGGUGGCGCGAUAGCGCCAACGUUCUCAACGAUGACACGCAAAACGCGUGCUCCGUUGAAUGGAGUUUAUCAUG — lower, ≤ -4.2
- GGAUCUUCUCGAUCUAACAAAAAAGACAAAUCUGCCAUAAAGCUUGAGAGCCUCUUUGGAUGCAGAGGCGACAGCCUUUGGUGGGGCGAUAGCACCAACGUUCUCAACUAUGACACGCAAAACGCGUGCUCCUUUGAAUGGAGUUUAUCAUG — lower, ≤ -4.2

— the RNAGym collection of RNA variant scans (doi:10.1073/pnas.2313332121)
